# Measurements as given in the supplement of paper PMC3334620.
# Over roughly 33,000 sequences, “E-score (-0.5 to 0.5)” has its median near -0.035; the highest 2% begin near 0.35. The list shows a part of the results.
# Molecular target: T1, Pdr3 (UniProt P33200)
# T1 sequence: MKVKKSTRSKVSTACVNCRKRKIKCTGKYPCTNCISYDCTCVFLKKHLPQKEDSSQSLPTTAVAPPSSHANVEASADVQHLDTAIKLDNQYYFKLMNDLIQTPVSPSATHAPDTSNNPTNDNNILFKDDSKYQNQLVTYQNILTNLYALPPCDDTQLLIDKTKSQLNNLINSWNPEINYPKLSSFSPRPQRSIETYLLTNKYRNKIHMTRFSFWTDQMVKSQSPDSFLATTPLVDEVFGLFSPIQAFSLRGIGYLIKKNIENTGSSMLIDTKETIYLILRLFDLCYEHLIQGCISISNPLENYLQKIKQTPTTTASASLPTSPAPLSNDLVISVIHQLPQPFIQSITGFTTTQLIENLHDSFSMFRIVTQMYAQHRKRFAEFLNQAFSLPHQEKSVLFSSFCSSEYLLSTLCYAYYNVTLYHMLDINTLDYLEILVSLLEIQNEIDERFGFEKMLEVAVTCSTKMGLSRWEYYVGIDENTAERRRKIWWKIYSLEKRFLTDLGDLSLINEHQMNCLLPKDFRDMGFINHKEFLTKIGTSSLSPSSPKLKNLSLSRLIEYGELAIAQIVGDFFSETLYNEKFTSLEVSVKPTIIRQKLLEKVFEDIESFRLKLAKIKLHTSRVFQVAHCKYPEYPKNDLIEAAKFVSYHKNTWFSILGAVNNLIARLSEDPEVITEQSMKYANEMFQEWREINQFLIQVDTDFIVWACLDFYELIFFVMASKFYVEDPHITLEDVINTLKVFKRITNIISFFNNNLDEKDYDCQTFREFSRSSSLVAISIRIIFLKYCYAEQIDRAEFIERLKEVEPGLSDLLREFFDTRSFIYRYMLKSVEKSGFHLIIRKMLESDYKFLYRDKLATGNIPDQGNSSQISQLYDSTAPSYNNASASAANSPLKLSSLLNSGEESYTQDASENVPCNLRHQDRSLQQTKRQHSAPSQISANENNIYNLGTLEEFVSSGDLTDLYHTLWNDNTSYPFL
# Assay: PBM E-score (8-mer binding enrichment) (E-score (-0.5 to 0.5)); higher = stronger / more preferred TF binding; most listed sequences are background and not binding sites
# Details: protein concentration: 200 nM; construct: GST-full length
# In short: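 Universal all-10-mer Agilent arrays, double-stranded by primer extension on fresh or once-stripped slides, were probed with about 100-200 nM GST-tagged yeast transcription factors made by PURExpress. Fluorescent anti-GST detected bound protein, and masliner normalised the scans. E-scores from the Universal PBM Analysis Suite were given to each ungapped eight-base word pooled with its reverse complement.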
row,Sequence,PBM E-score
1,TTCTCCAA,-0.172
2,GCAAGGCC,0.0202
3,CGCTAACG,0.0263
4,GGTTAAAA,-0.0608
5,CTACTACC,-0.00339
6,TGCCTTAA,-0.258
7,ACACGTAA,-0.169
8,CACACTGA,-0.223
9,ATATAGGG,-0.118
10,GTCGCCCA,-0.0984
11,GTGATGTA,0.0167
12,GGGAGACC,-0.0244
13,AACCCGCC,0.165
14,CTCACGCC,0.0465
15,GTACAGAA,-0.00734
16,CAAGATCC,0.114
17,GAGAACTA,-0.163
18,CACCCAAG,-0.071
19,TCATAGCA,-0.223
20,CCGACGAG,0.169
21,CGGGGCAG,0.224
22,CTTGAATC,-0.17
23,CTGGAGGA,-0.248
24,AACCTAGG,0.0108
25,GCCGGGAA,0.304

row,Sequence,PBM E-score
1,AAACGACG,0.0464
2,CAGCATCC,0.0985
3,CCGAGGGC,0.298
4,GATCCTGA,0.0865
5,TACCCCCA,-0.269
6,AGCCTTAC,-0.374
7,CGTGCTGA,0.00926
8,ACCGGTCC,0.244
9,AGCAGACC,-0.132
10,AAGTCGTG,-0.117
11,GACTAACA,0.00927
12,CCTCTGTA,-0.249
13,GAGGTAGC,-0.0805
14,ACAAAACG,0.236
15,AATAGTGT,0.204
16,CGGTCACA,0.0266
17,CCTATGCC,-0.11
18,CACGGCCA,0.0585
19,TGCGGTAA,0.0177
20,GGAGGGGA,0.041
21,GCCAACAA,-0.189
22,CCAGCAAG,-0.171
23,CATTCGGG,0.266
24,AGCAAGTG,-0.203
25,ACTAGCTC,-0.0778

row,Sequence,PBM E-score
1,CCGTCTCA,0.042
2,GCGCGTCA,-0.0218
3,AATTTATA,0.0667
4,CATGAAGG,0.0341
5,ATTGGAGG,-0.103
6,CCGTCGCA,0.297
7,CAATACGG,0.0848
8,AAGGCCTT,-0.289
9,CGACTACC,-0.188
10,ATGCGACC,0.281
11,GCATCCAA,-0.132
12,CTTGTTAC,-0.0306
13,ATGGTTAA,-0.22
14,CATCTTAG,-0.116
15,GTTTACCA,-0.134
16,ATCGATAG,-0.138
17,ACTCCTGC,-0.0523
18,AAGCAGAG,-0.193
19,ATCTCGGG,0.278
20,GCAGACCA,-0.132
21,ACGCGACA,0.0983
22,GCACTTTA,-0.0932
23,ACGCGACT,-0.127
24,GCGTGGTA,-0.0288
25,ACGAGGAA,0.133

row,Sequence,PBM E-score
1,ATCACCTC,0.0188
2,GTAGGGGA,-0.0268
3,ATGCCAAT,-0.0512
4,AGCGTCCC,0.0713
5,GAATAAAC,0.0441
6,AAGGGCAT,-0.225
7,AGTCCGAT,0.225
8,AATCACAA,-0.159
9,GTCTCAAC,-0.0293
10,ACTGGTCA,0.0716
11,GATTATAA,0.171
12,AGCGGTAC,-0.0325
13,AAAGGATA,-0.0682
14,ATTGAGAG,0.0426
15,GCAGAGAA,-0.0205
16,GCCGGTCC,0.285
17,CGGCTCAC,0.12
18,CCGGGGAA,0.356
19,CGCGAGCC,0.124
20,AATGGAAA,0.103
21,CAGTAGGG,-0.191
22,ATAGTCGG,0.111
23,GGCGCGGA,0.352
24,ACGTCCCC,-0.0744
25,AGTGTGAC,-0.336

row,Sequence,PBM E-score
1,ATCCTAGA,-0.0578
2,AGGGTACG,-0.139
3,ACAGTAGA,-0.155
4,CAGTACAG,-0.134
5,AATCCCCT,-0.031
6,AATTAGTC,0.0765
7,GCCCAACA,-0.179
8,CAGGCTTC,0.0398
9,CAGTGCGA,-0.0825
10,CCGAAGCC,0.245
11,AGCTGATG,0.119
12,CCGGACTC,0.363
13,CACGGTTA,0.149
14,CCATAGAA,-0.0721
15,CAAATTCC,0.19
16,CAAAGGGA,-0.272
17,TGCGTTAA,-0.159
18,ACGGCGGA,0.314
19,AGTACCAA,0.0394
20,CCGGGCCC,0.345
21,AGCACGTC,0.0205
22,ATACACAC,-0.183
23,AGTCGTGG,-0.293
24,GAACAAAC,0.214
25,AACATCAC,-0.204

row,Sequence,PBM E-score
1,GGAATCGA,0.229
2,GTATCACA,-0.0329
3,TTACAGAA,-0.32
4,GTAGAAAA,-0.141
5,TGATCTAA,-0.0316
6,AGGCTTCC,0.159
7,CCCGTGAA,0.0247
8,GAATCGCC,0.0259
9,TTGGTAAA,-0.255
10,CGGATGTA,0.256
11,AGGAGGCA,-0.127
12,CTTGACTC,-0.133
13,GCTGTGGA,0.0315
14,ACAGACGG,-0.00171
15,AAATGGCC,-0.0932
16,ACTTACGG,0.166
17,ATGAGGCC,0.00617
18,AGCCGATA,0.0109
19,GGTCTGAA,0.0448
20,ACATTGCG,0.0294
21,AACACCCA,-0.0239
22,GCGCTGTA,-0.048
23,GCACGAAA,-0.00181
24,ATTCGTGA,-0.175
25,GAGTGCCA,-0.181

row,Sequence,PBM E-score
1,ATAGAGAT,-0.124
2,GCAGCCGA,0.166
3,ATCATATC,0.145
4,GACAATGA,-0.141
5,GCCAAGTA,-0.29
6,CGCTACTA,0.0942
7,TGCTGACA,-0.201
8,CGCAAAAA,0.0978
9,CAAGAATC,-0.0515
10,ATCAACGA,0.0802
11,CAGGACAC,-0.0576
12,TATAATCA,0.0514
13,AACAACCG,0.113
14,AAATATAT,0.19
15,CGGGTTCA,0.304
16,CATATAAC,0.049
17,ACCCCACT,0.106
18,ACAGTATG,0.0747
19,AGTCCACA,-0.239
20,CACTTCCA,-0.0319
21,AGCGCCTC,0.0308
22,AAAGCAAC,-0.0277
23,AACAGTCG,-0.0572
24,GGGGATAA,0.0548
25,CCCTTCGC,-0.0816

row,Sequence,PBM E-score
1,ACTCCGGG,0.369
2,TCTAGCCA,-0.128
3,AAATGTAT,0.15
4,GGTCTTCA,-0.198
5,CAAGCCGA,0.148
6,AACATTAT,0.0788
7,CAGATGTA,-0.2
8,AAGCACAG,-0.0267
9,CGCATAGA,0.0297
10,AAACGCTT,-0.218
11,TCTTAACA,-0.237
12,CACTTGAA,-0.13
13,AGGAGCAT,-0.137
14,AGTTAACC,0.0562
15,CGAGACGC,0.0374
16,AATACATT,-0.0492
17,CGTGACTA,-0.00109
18,CTAATCGA,0.0366
19,AATACCGA,0.0748
20,ACTCTGAA,0.0584
21,AGATAAGA,0.0269
22,CTTACAGA,-0.182
23,AGCGCAGC,-0.099
24,CAATGCAG,-0.0477
25,CCCGATGA,0.269

row,Sequence,PBM E-score
1,TATGGCGA,-0.0751
2,ATAGAGAA,-0.113
3,CAGTCAAA,-0.0759
4,ACAGGCAC,-0.123
5,CCAAATGC,-0.0689
6,AGTACTAT,-0.0162
7,ATTACTCA,-0.0474
8,ACTATGCC,0.104
9,CCCTGCGG,0.0874
10,AACACTCT,0.0204
11,ACAATGTC,0.0131
12,AAAAGTGG,0.0759
13,ATCCGCCG,0.387
14,AGTTGTTA,0.0458
15,AAGCGTGT,-0.256
16,AGCCAGTG,-0.142
17,TCGGGTCA,0.312
18,CGCTATAA,-0.0802
19,CCGTATCG,0.0411
